# Measured values as given in patent publication US11178870B2 (priority 2017, dated 2021).
# Legend:
# [1] = tested on: Magnaporthe grisea; format: in vivo; conditions: Blast on rice
# [2] = tested on: Phytophthora infestans; format: in vivo; conditions: Late blight on tomato
Structure (SMILES),Test A control value [1],Test F control value [2]
Cn1c(-c2c(F)cccc2F)c(-c2cccnc2Cl)ccc1=O [Compound 99],H (H shows the control value more than 50%),L (L shows the control value of 50% or less)
CCn1c(-c2c(F)cc(F)cc2F)c(-c2cccnc2Cl)ccc1=O [Compound 61],H (H shows the control value more than 50%),L (L shows the control value of 50% or less)
CCn1c(-c2c(F)cccc2F)c(-c2cnc(Cl)o2)cc(Cl)c1=O [Compound 87],L (L shows the control value of 50% or less),L (L shows the control value of 50% or less)
CCn1c(-c2c(F)cc(F)cc2F)c(-c2cccnc2Cl)cc(Br)c1=O [Compound 63],H (H shows the control value more than 50%),L (L shows the control value of 50% or less)
CCn1c(-c2ccccc2Cl)c(-n2ncc(C)c2Cl)cc(Br)c1=O [Compound 181],H (H shows the control value more than 50%),H (H shows the control value more than 50%)
CCn1c(-c2c(F)cc(F)cc2F)c(-c2c(Cl)cnn2C)cc(Cl)c1=O [Compound 22],H (H shows the control value more than 50%),L (L shows the control value of 50% or less)
Cn1c(-c2c(F)cc(F)cc2F)c(-c2cccnc2Cl)cc(Br)c1=O [Compound 104],H (H shows the control value more than 50%),L (L shows the control value of 50% or less)
O=c1c(Cl)cc(-c2cccnc2Cl)c(-c2c(F)cccc2F)n1CC(F)F [Compound 57],H (H shows the control value more than 50%),L (L shows the control value of 50% or less)
CCn1c(-c2c(F)cccc2F)c(-c2ccsc2Br)ccc1=O [Compound 44],H (H shows the control value more than 50%),L (L shows the control value of 50% or less)
CCn1c(-c2c(F)cccc2F)c(-c2oc(I)nc2I)cc(Cl)c1=O [Compound 75],H (H shows the control value more than 50%),L (L shows the control value of 50% or less)
CCn1c(-c2ccc(OC)cc2Cl)c(-c2cnco2)cc(Cl)c1=O [Compound 33],H (H shows the control value more than 50%),L (L shows the control value of 50% or less)
CCn1c(-c2c(F)cccc2F)c(-c2ccsc2Br)cc(Br)c1=O [Compound 54],H (H shows the control value more than 50%),L (L shows the control value of 50% or less)
COc1cc(F)c(-c2c(-n3cc(Cl)cn3)cc(Br)c(=O)n2C)c(F)c1 [Compound 178],H (H shows the control value more than 50%),L (L shows the control value of 50% or less)
CCn1c(-c2c(F)cc(F)cc2F)c(-c2cccnc2Cl)cc(Cl)c1=O [Compound 62],H (H shows the control value more than 50%),L (L shows the control value of 50% or less)
COc1cc(F)c(-c2c(-n3cc(Cl)cn3)cc(Cl)c(=O)n2CC(F)(F)F)c(F)c1 [Compound 122],H (H shows the control value more than 50%),L (L shows the control value of 50% or less)
CCn1c(-c2c(F)cc(OC)cc2F)c(-n2cc(Cl)c(C)n2)cc(Br)c1=O [Compound 146],H (H shows the control value more than 50%),L (L shows the control value of 50% or less)
CCn1c(-c2c(F)cc(F)cc2F)c(-n2cc(C)cn2)cc(Br)c1=O [Compound 101],H (H shows the control value more than 50%),L (L shows the control value of 50% or less)
CCn1c(-c2ccc(F)cc2Cl)c(-c2cnco2)cc(Cl)c1=O [Compound 32],L (L shows the control value of 50% or less),L (L shows the control value of 50% or less)
CCN1C(=O)CCC(c2ccsc2)=C1c1c(F)cccc1F [Compound 4],H (H shows the control value more than 50%),L (L shows the control value of 50% or less)
CCn1c(-c2c(F)cc(F)cc2F)c(-c2ocnc2Cl)cc(Br)c1=O [Compound 107],H (H shows the control value more than 50%),L (L shows the control value of 50% or less)
Cn1c(-c2c(F)cc(F)cc2F)c(-c2cccnc2Cl)cc(Cl)c1=O [Compound 100],H (H shows the control value more than 50%),L (L shows the control value of 50% or less)
O=c1c(Cl)cc(-c2cccnc2Cl)c(-c2c(F)cccc2F)n1CC(F)(F)F [Compound 60],L (L shows the control value of 50% or less),L (L shows the control value of 50% or less)
CCn1c(-c2ccc(F)cc2F)c(-n2cc(Cl)cn2)cc(Cl)c1=O [Compound 148],H (H shows the control value more than 50%),L (L shows the control value of 50% or less)

Structure (SMILES),Test A control value [1],Test F control value [2]
O=c1c(Br)cc(-c2cccnc2Cl)c(-c2c(F)cccc2F)n1CC(F)(F)F [Compound 64],H (H shows the control value more than 50%),L (L shows the control value of 50% or less)
CCn1c(-c2c(F)cc(OC)cc2F)c(-c2ocnc2Br)cc(Br)c1=O [Compound 103],H (H shows the control value more than 50%),L (L shows the control value of 50% or less)
CCn1c(-c2c(F)cc(F)cc2F)c(-n2cc(C)cn2)cc(Cl)c1=O [Compound 85],H (H shows the control value more than 50%),L (L shows the control value of 50% or less)
CCn1c(-c2c(F)cc(OC)cc2F)c(-c2ocnc2F)cc(Cl)c1=O [Compound 127],H (H shows the control value more than 50%),L (L shows the control value of 50% or less)
CCn1c(-c2c(F)cc(OC)cc2F)c(-c2ocnc2Cl)cc(Cl)c1=O [Compound 115],H (H shows the control value more than 50%),L (L shows the control value of 50% or less)
CCn1c(-c2ccc(OC)cc2F)c(-n2cc(Cl)cn2)cc(Br)c1=O [Compound 152],H (H shows the control value more than 50%),L (L shows the control value of 50% or less)
CCn1c(-c2c(F)cc(F)cc2F)c(-n2ncc(C)c2Cl)cc(Cl)c1=O [Compound 83],H (H shows the control value more than 50%),L (L shows the control value of 50% or less)
CCn1c(-c2ccc(F)cc2Br)c(-n2cc(Cl)cn2)cc(Br)c1=O [Compound 166],H (H shows the control value more than 50%),L (L shows the control value of 50% or less)
COc1cc(F)c(-c2c(-n3cc(Cl)cn3)cc(Cl)c(=O)n2C)c(F)c1 [Compound 177],H (H shows the control value more than 50%),L (L shows the control value of 50% or less)
CCn1c(-c2c(F)cc(OC)cc2F)c(-n2nc(C)cc2C)ccc1=O [Compound 94],H (H shows the control value more than 50%),L (L shows the control value of 50% or less)
CCn1c(-c2c(F)cc(OC)cc2F)c(-n2cc(Cl)cn2)cc(Br)c1=O [Compound 73],H (H shows the control value more than 50%),L (L shows the control value of 50% or less)
CCn1c(-c2c(F)cccc2F)c(-c2cccnc2Cl)cc(Br)c1=O [Compound 55],H (H shows the control value more than 50%),L (L shows the control value of 50% or less)
Cn1c(-c2c(F)cccc2F)c(-c2ccsc2)ccc1=O [Compound 15],L (L shows the control value of 50% or less),L (L shows the control value of 50% or less)
O=c1ccc(-c2cccnc2Cl)c(-c2c(F)cc(F)cc2F)n1CC(F)F [Compound 67],H (H shows the control value more than 50%),L (L shows the control value of 50% or less)
CCn1c(-c2c(F)cc(F)cc2F)c(-n2nc(C)c(Br)c2C)cc(Br)c1=O [Compound 117],L (L shows the control value of 50% or less),L (L shows the control value of 50% or less)
O=c1c(Cl)cc(-n2cc(Cl)cn2)c(-c2c(F)cc(F)cc2F)n1CC(F)(F)F [Compound 121],H (H shows the control value more than 50%),L (L shows the control value of 50% or less)
CCn1c(-c2ccc(F)cc2Br)c(-n2cc(Cl)cn2)ccc1=O [Compound 164],H (H shows the control value more than 50%),L (L shows the control value of 50% or less)
CCn1c(-c2c(F)cccc2F)c(-c2cnc(N(C)C)o2)cc(Cl)c1=O [Compound 131],L (L shows the control value of 50% or less),L (L shows the control value of 50% or less)
CCn1c(-c2ccc(OC)cc2Cl)c(-c2ocnc2C)cc(Cl)c1=O [Compound 39],H (H shows the control value more than 50%),L (L shows the control value of 50% or less)
CCn1c(-c2ccc(F)cc2Cl)c(-n2cc(Cl)cn2)cc(Br)c1=O [Compound 158],H (H shows the control value more than 50%),L (L shows the control value of 50% or less)
CCn1c(-c2ccccc2Br)c(-n2cc(Cl)cn2)ccc1=O [Compound 183],L (L shows the control value of 50% or less),L (L shows the control value of 50% or less)
CCn1c(-c2c(F)cc(F)cc2F)c(-n2cc(Cl)c(C)n2)ccc1=O [Compound 141],H (H shows the control value more than 50%),L (L shows the control value of 50% or less)
